Data published in PubChem BioAssay AID2147 (National Center for Advancing Translational Sciences (NCATS), 2009).
Among all 230,000 compounds or so, about 3,600 (1.6%) were called active. The shares of active, inactive and inconclusive entries below differ from those in the screen. Calls follow the shape of the dose curve; as a rule, active = well fitted inhibition curve with a large enough effect (not every such curve was filed as active); inconclusive = small, poorly fitted or top-dose-only effect, or another doubt; inactive = no such curve, though single readings can be large or run the other way. Potencies beside an inconclusive call are fits to weak or partial responses and may not hold up.
Also: nearly all actives have a fitted effect of over 50% in size.
Potency is read from the fitted curve at half-maximal effect; tags tell the direction and shape of the fitted curve.

Each compound was assayed against Lysine-specific demethylase 4E (Homo sapiens) (UniProt B2RXH2) (assay: qHTS Assay for Inhibitors of Human Jumonji Domain Containing 2E (JMJD2E)). Settings: JMJD2E catalytic domain, FDH-coupled NADH fluorescence (FDH is formaldehyde dehydrogenase); series mostly up to 57.1 µM.
Sequence of UniProt B2RXH2 (B2RXH2 whole entry, looked up, the tested form may be a part): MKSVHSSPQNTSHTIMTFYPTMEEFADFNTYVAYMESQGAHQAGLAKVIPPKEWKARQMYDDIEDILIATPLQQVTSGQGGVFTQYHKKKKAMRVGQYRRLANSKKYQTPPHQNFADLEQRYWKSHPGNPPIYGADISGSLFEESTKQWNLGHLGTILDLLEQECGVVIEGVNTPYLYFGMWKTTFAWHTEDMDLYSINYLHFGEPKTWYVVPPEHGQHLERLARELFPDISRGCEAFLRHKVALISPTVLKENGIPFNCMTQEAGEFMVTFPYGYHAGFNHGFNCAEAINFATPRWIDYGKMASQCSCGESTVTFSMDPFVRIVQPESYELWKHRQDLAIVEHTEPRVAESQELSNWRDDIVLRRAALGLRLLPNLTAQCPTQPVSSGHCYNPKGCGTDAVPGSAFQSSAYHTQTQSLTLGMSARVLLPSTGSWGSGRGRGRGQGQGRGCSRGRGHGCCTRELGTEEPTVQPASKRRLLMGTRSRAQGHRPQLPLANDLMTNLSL
For Cc1ccc(COc2ccsc2-c2n[nH]c(=S)n2C)cc1, the Potency was inconclusive: 25.1 µM [inhibitor, partial curve]. For COC(=O)c1[nH]c2ccc(F)cc2c1NC(=O)C1=COCCO1, the Potency was inconclusive: 17.8 µM [inhibitor, partial curve]. COc1cccc([C@@H]2Oc3ccc(OC)cc3C(=O)[C@H]2O)c1 was tested, and the Potency was inconclusive: 35.5 µM [inhibitor, single point]. O=C(Nc1ccc(Cl)cc1Cl)NC1CCCC1 was tested, and the Potency was “inactive”. With CC(C)CCNC(=O)CSc1nnc(-c2ccc(S(=O)(=O)N3CCCC3)cc2)n1C the Potency was inconclusive: 31.6 µM [inhibitor, single point]. O=C(Nc1cc(S(=O)(=O)N2CCCCC2)ccc1N1CCCCC1)C1CC1 was tested, and the Potency was “inactive”. In the case of Cc1cccc(Nc2ccccc2C(=O)OCC(=O)NCc2ccco2)c1C, the Potency was inconclusive: 35.5 µM [inhibitor, single point]. For CCOc1ccc(-c2n[nH]c(C)c2Oc2ccc(OC)cc2)c(O)c1, the Potency was inconclusive: 39.8 µM [inhibitor, single point]. With O=C(CNC(=O)c1ccco1)OCc1c(F)cccc1Cl the Potency was “inactive”. CCOC(=O)c1ccc(NC(=O)CCC(=O)OC)cc1 was tested, and the Potency was “inactive”. In the case of Nc1nc(-c2cccs2)c(CC(=O)O)s1, the Potency was “inactive”. With CC(=O)Nc1nc2ccccc2n1CCN(C)C the Potency was “inactive”. With Cc1ccsc1-c1nc(CN(C)C(C2CC2)C2CC2)c(C)o1 the Potency was inconclusive: 22.4 µM [inhibitor, single point]. O=C(NC1CCCCC1)c1nc2c(nnn2Cc2ccccc2Cl)c(=O)[nH]1 was tested, and the Potency was “inactive”. With O=C(c1ccc2nc(-c3ccco3)c(-c3ccco3)nc2c1)N1CCN(c2ccccc2)CC1 the Potency was inconclusive: 28.2 µM [inhibitor, single point]. With C/C(Cn1nnc([N+](=O)[O-])n1)=N\NC(=O)c1ccc(O)cc1 the Potency was “inactive”. In the case of O=C(CNC(=O)C12CC3CC(CC(C3)C1)C2)OCc1cc(=O)n2cc(Br)ccc2n1, the Potency was inconclusive: 31.6 µM [inhibitor, single point]. In the case of CN(C)C=Nc1nonc1-c1ncn[nH]1, the Potency was inconclusive: 25.1 µM [inhibitor, single point]. With CCN(CC)c1ccc(/C=N/NC(=O)Cc2cccs2)cc1 the Potency was inconclusive: 31.6 µM [inhibitor, partial curve]. With COc1ccc2[nH]c(=O)c(CN(C(=O)c3cccnc3)c3cc(C)ccc3C)cc2c1 the Potency was inconclusive: 28.2 µM [inhibitor, partial curve]. COc1ccc(/C=C2/C(=N)N3C(=NC2=O)Sc2cc(S(C)(=O)=O)ccc23)cc1OC was tested, and the Potency was inconclusive: 10 µM [inhibitor, partial curve]. For CN(/N=C/c1ccco1)C1=NS(=O)(=O)c2ccccc21, the Potency was inconclusive: 35.5 µM [inhibitor, single point]. In the case of COc1ccc(OC)c(N=c2oc3cc(O)ccc3cc2C(N)=O)c1, the Potency was inconclusive: 35.5 µM [inhibitor, single point]. In the case of COc1ccccc1NCC(=O)N/N=C/C=C/c1ccccc1, the Potency was inconclusive: 31.6 µM [inhibitor, single point]. For Cc1[nH]nc2oc(=O)c(CCO)c(C)c12, the Potency was inconclusive: 31.6 µM [inhibitor, single point]. In the case of CCCCNC(=O)/C=C1\Sc2ccccc2NC1=O, the Potency was inconclusive: 35.5 µM [inhibitor, single point]. With CCC(Oc1ccccc1)C(=O)Nc1nnc(C)s1 (stereo unspecified) the Potency was “inactive”. In the case of Nc1nc2nccc(-c3ccccn3)n2n1, the Potency was inconclusive: 31.6 µM [inhibitor, partial curve]. COc1cc(/C=C(\C#N)c2nc3ccccc3[nH]2)cc(Br)c1OCc1ccc(F)cc1 was tested, and the Potency was inconclusive: 31.6 µM [inhibitor, partial curve]. In the case of COc1ccc(-n2c(NC(=O)c3ccc(Br)o3)c(C#N)c3nc4ccccc4nc32)cc1, the Potency was inconclusive: 17.8 µM [inhibitor, partial curve]. CCn1c2ccccc2c2cc(NC(=O)CCCN3C(=O)CCC3=O)ccc21 was tested, and the Potency was inconclusive: 39.8 µM [inhibitor, single point]. With CCCc1nnc(NC(=O)CC(=O)Nc2ccccc2C(=O)O)s1 the Potency was inconclusive: 39.8 µM [inhibitor, single point]. In the case of CC(C)(C)c1cn(-c2ccccc2)c(=S)[nH]1, the Potency was “inactive”. NS(=O)(=O)c1ccc(NC(=O)/C=C/c2ccccc2Cl)cc1 was tested, and the Potency was inconclusive: 39.8 µM [inhibitor, single point]. With COc1cccc(/C(O)=C2/C(=O)C(=O)N(CCN(C)C)C2c2ccccn2)c1 (stereo unspecified) the Potency was inconclusive: 31.6 µM [inhibitor, single point]. For CN1CCc2nc(NC(=O)COc3ccc(C#N)cc3)sc2C1, the Potency was inconclusive: 39.8 µM [inhibitor, single point]. For Cc1ccc(C(=O)N/N=C\c2ccccn2)cn1, the Potency was inconclusive: 25.1 µM [inhibitor, single point]. With COc1ccccc1/C=N/n1c(N)c(C(=O)NC2CCCCC2)c2nc3ccccc3nc21 the Potency was inconclusive: 0.708 µM [inhibitor, full curve, poor fit]. Cc1ccc(C)c(N2CCN(S(=O)(=O)c3ccc4[nH]c(=O)c(=O)[nH]c4c3)CC2)c1 was tested, and the Potency was inconclusive: 39.8 µM [inhibitor, single point]. In the case of O=C(NCc1cccnc1)C1c2ccccc2C(=O)N1C1CCCC1 (stereo unspecified), the Potency was “inactive”. With Cc1ccc(C(=O)Nc2sc3c(c2C(=O)O)CCCCC3)o1 the Potency was “inactive”. With COc1ccc2[nH]cc(/C=N/NS(=O)(=O)c3ccc(C)cc3)c2c1 the Potency was “inactive”. With CCOC(=O)N1CCC2(CC1)CC(=O)c1c(ccc3oc(C(=O)O)c(C)c13)O2 the Potency was inconclusive: 31.6 µM [inhibitor, partial curve]. With CCCC(=O)Nc1ccc2c(c1)C(=O)N(CCC(=O)O)C2=O the Potency was inconclusive: 31.6 µM [inhibitor, partial curve]. In the case of CCOc1ccc(-c2nc(C#N)c(NC3CC3)o2)cc1, the Potency was inconclusive: 35.5 µM [inhibitor, single point]. CN(Cc1ccco1)c1ncnc2ccc(-c3cccnc3)cc12 was tested, and the Potency was inconclusive: 7.08 µM [inhibitor, single point]. In the case of COCCCNCCCCOc1c(Cl)cc(C)cc1Br, the Potency was inconclusive: 31.6 µM [inhibitor, single point]. With O=C(COc1ccc(Cl)cc1)NNC(=O)c1ccccn1 the Potency was inconclusive: 39.8 µM [inhibitor, single point]. With Clc1ccc(Cn2ccc(-c3ccc4c(c3)OCO4)n2)cc1Cl the Potency was inconclusive: 39.8 µM [inhibitor, single point]. In the case of Nc1ncnc2nc(-c3ccc(N4CCOCC4)nc3)cc(-c3cccc(Br)c3)c12, the Potency was inconclusive: 31.6 µM [inhibitor, single point]. CN(C)c1ccc(C(=O)OCC(=O)NCCC2=CCCCC2)cc1 was tested, and the Potency was inconclusive: 39.8 µM [inhibitor, single point]. In the case of COc1ccc(-c2ccc3nnc(SCC(N)=O)n3n2)cc1, the Potency was inconclusive: 28.2 µM [inhibitor, partial curve]. For Cc1sc(NC(=O)c2ccc(F)cc2)c(CN2CCCCCC2)c1C, the Potency was inconclusive: 39.8 µM [inhibitor, single point]. In the case of COCCn1c(SCC(=O)N2CCCc3ccccc32)nc2ccccc2c1=O, the Potency was “inactive”. CC1=C(C(=O)OC(C)C)C(c2cccc(F)c2)N2C(=O)C(C)SC2=N1 (stereo unspecified) was tested, and the Potency was “inactive”. For CC(=O)c1ccc2c(c1)N(C)c1ccccc1S2, the Potency was “inactive”. With S=C1NCN(C2CCCCC2)CN1c1ccccc1 the Potency was “inactive”. In the case of O=S(=O)(NCC1CCCO1)c1ccc(Oc2ccccc2)cc1 (stereo unspecified), the Potency was “inactive”. CC(=O)N1CCC2(CC1)CC(=O)c1cc(OCC(=O)N3CCOCC3)ccc1O2 was tested, and the Potency was inconclusive: 28.2 µM [inhibitor, partial curve]. With CCCOc1ccccc1C1C(C(=O)OC)=CN(C(C)C)C=C1C(=O)OC the Potency was inconclusive: 11.2 µM [inhibitor, partial curve]. COc1ccc(C2C(C#N)=C(N)Oc3c2oc(CO)cc3=O)c(OC)c1OC (stereo unspecified) was tested, and the Potency was inconclusive: 39.8 µM [inhibitor, single point]. With COc1ccccc1C(=O)Nc1nc2cc3c(cc2s1)OCO3 the Potency was inconclusive: 15 µM [inhibitor, partial curve]. With CCc1nnc(NC(=O)CCC(=O)N2CCN(c3ccccn3)CC2)s1 the Potency was inconclusive: 35.5 µM [inhibitor, single point]. With c1ccc(-c2ccnc3nc(-n4cccc4)nn23)cc1 the Potency was inconclusive: 35.5 µM [inhibitor, single point]. For CSc1ccc(S(=O)(=O)NCc2ccccc2)cc1, the Potency was “inactive”. For Cc1ccc(NC(CC(=O)c2ccccc2)C(=O)O)cc1Cl (stereo unspecified), the Potency was inconclusive: 39.8 µM [inhibitor, single point]. For COc1ccccc1CNC(=O)c1n[nH]c2ccccc12, the Potency was inconclusive: 39.8 µM [inhibitor, single point]. For O=C(COc1ccc2c(c1)C(=O)CC1(CCCCC1)O2)NCc1ccccc1, the Potency was inconclusive: 28.2 µM [inhibitor, partial curve]. In the case of COc1ccccc1NC(=O)N(Cc1cc2cc(OC)c(OC)cc2[nH]c1=O)CC1CCCO1 (stereo unspecified), the Potency was inconclusive: 28.2 µM [inhibitor, partial curve]. N#Cc1cc2c(N)c(C(=O)Nc3ccccc3)sc2nc1N was tested, and the Potency was inconclusive: 14.1 µM [inhibitor, partial curve]. For C=CCn1c(-c2ccc(Cl)cc2)ccc(C#N)c1=O, the Potency was inconclusive: 28.2 µM [inhibitor, partial curve].
